Among all 45,000 compounds or so, about 65 (0.1%) were called active. The call rests on the fitted dose curve; in most records, active means well fitted activation curve with a large enough effect; inconclusive means small, poorly fitted or top-dose-only effect; inactive means no such curve, though single readings can be large or run the other way. The list shows a part of the results.
What follows are molecules tested against Galactocerebrosidase (Homo sapiens) (UniProt P54803) (assay: A Novel Cell-Based Assay to Identify Small Molecules for B -Galactocerebrosidase). Conditions: 145M-Twi-hGALC-G270D cells (Twitcher mouse brain line with human GALC G270D), HMU-beta-Gal fluorescence, 48 h; series mostly up to 57.5 µM; activation: at the top concentration.
Outline: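 Fluorogenic HMU-b-Gal hydrolysis (0.1 mM final, pH 5.2 citrate-phosphate with 1 mg/mL sodium taurocholate; carbonate stop buffer) measures mutant GALC activity after compound treatment of live 145M-Twi Twitcher brain cells stably carrying human GALC-G270D, with wild-type GALC line alongside; activation sought.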
Further: 0% is about no effect; nearly all actives have a fitted effect of over 65% in size.

UniProt P54803, sequence (P54803 whole entry, looked up): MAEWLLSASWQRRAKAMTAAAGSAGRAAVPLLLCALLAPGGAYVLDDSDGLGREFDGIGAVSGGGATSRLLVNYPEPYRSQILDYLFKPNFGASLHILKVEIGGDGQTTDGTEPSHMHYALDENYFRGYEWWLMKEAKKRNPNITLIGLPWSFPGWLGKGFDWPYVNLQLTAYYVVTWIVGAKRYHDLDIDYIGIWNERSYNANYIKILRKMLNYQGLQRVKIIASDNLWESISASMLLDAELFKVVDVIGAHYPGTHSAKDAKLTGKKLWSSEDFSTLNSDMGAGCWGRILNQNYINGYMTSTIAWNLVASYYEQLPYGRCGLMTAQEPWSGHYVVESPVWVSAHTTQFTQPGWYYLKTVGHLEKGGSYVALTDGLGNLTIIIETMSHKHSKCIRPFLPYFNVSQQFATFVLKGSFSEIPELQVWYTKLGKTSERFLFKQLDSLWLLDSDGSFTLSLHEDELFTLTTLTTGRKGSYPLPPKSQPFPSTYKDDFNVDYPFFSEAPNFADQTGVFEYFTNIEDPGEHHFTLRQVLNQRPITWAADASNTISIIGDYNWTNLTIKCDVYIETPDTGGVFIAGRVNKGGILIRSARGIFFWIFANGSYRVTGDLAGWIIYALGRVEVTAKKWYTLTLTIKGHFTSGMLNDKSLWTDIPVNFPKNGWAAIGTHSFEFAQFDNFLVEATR

activation, inactive:
COc1ccc(C(=O)Nc2ccccc2C(=O)OCc2cc(=O)n3nc(C4CC4)sc3n2)cc1 -20.3%
O=C(C1CCCCC1)N(Cc1cccnc1)c1nc2ccc(F)cc2s1 -19.3%
CCc1nnc(NC(=O)CSc2nc3c([nH]c4ccccc43)c(=O)n2-c2ccc(OC)cc2)s1 -10.1%
CC(C)c1ccc(/C=C(\C#N)c2nc(-c3ccc(O)cc3)cs2)cc1 -43.7%
Nc1nc(N)c(S(=O)(=O)c2ccccc2)c(Nc2ccc(F)cc2)n1 3.61%
CCOC(=O)c1c(Nc2cccc(C)c2)nnc(-c2ccccc2)c1-c1ccccc1 -31.1%
Cn1ccc2cc(S(=O)(=O)N3CCN(C(=O)Nc4ccccc4F)CC3)ccc21 7.72%
CCc1cccc(NC(=O)COc2cc(=O)n(CC)c3ccccc23)c1 -7%
CCOC(=O)N1CCC(NC(=O)c2ccc3c(c2)N(Cc2ccc(Cl)cc2)C(=O)c2ccccc2S3=O)CC1 (stereo unspecified) -10.8%
Cc1cccc(N(C)S(=O)(=O)c2nnc(NC(=O)C3CCCCC3)s2)c1 -14.9%
O=C(CSc1nc2ccccc2nc1Cc1ccccc1)N1CCCc2ccccc21 -6.88%
CCOC(N)=O -20.3%
COc1cc(-c2ccno2)ccc1S(=O)(=O)N1CCN(c2ccc(F)cc2)CC1 -23.3%
CCc1ccc2occ(CC(=O)N(Cc3ccc(N(C)C)cc3)C3CCS(=O)(=O)C3)c2c1 (stereo unspecified) -15.6%
CCOC(=O)c1cccc(NC(=O)c2sc3nc[nH]c(=O)c3c2C)c1 -12.6%
CCc1ccc(-c2nc(CSCC(=O)NCc3ccc(C)cc3)c(C)o2)cc1 -19.6%
COc1ccc(CN2CCN(S(=O)(=O)c3ccc(NC(C)=O)cc3)CC2)c(OC)c1OC -22.2%
CC(=O)c1cc2c(cc1N/C(=N/S(=O)(=O)c1ccc(F)cc1)c1ccccc1)OCO2 -11.8%
CCN(Cc1ccccc1)C(=O)CCS(=O)(=O)c1ccc2c(c1)CCN2C(C)=O -3.11%
CCc1ccc(NC(=O)c2sc3nc(C)cc(C)c3c2NC(=O)c2ccccc2OC)cc1 -17.2%
O=C(NC1CCCCC1)c1ccc2c(c1)N(Cc1cccc(Cl)c1)C(=O)c1ccccc1S2=O (stereo unspecified) -13.6%
CCc1ccc(NC(=O)CC2C(=O)N(c3ccc(Cl)cc3)C(=O)N2C2CCCC2)cc1 (stereo unspecified) -20.3%
COc1cc(OC)c(NC(=O)CSc2cc(=O)n(C)c3ccc(Cl)cc23)cc1Cl -12.1%
CCc1c(CN2CCN(c3cccc(C)c3)C(C)C2)csc1C (stereo unspecified) -5.34%
O=C(Cn1ncc2c3ccccc3n(Cc3cccc(Cl)c3)c2c1=O)N1CCCCCC1 -13.1%
CCOc1ccc(CCNC(=O)Cn2c(C)c3cnn(-c4ccccc4)c(=O)c3c2C)cc1 -13.9%
O=C(NCc1ccco1)c1ccc2c(c1)N(Cc1cccc(Cl)c1)C(=O)c1ccccc1S2=O (stereo unspecified) -3.02%
Cc1ccc2[nH]c3c(=O)n(CC(=O)N4CCCC(C)C4)ncc3c2c1 (stereo unspecified) -9.27%
CC(CCCc1ccccc1)NC(=O)c1nn(-c2ccc(Cl)cc2)nc1CO (stereo unspecified) -8.3%
CC(C)c1cccc(C(C)C)c1NS(=O)(=O)c1cccs1 -12.7%
Nc1ncc(S(=O)(=O)NCc2ccc(F)cc2)cn1 3%
O=C(NC1CC(=O)N(c2ccccc2)C1)c1ccc(S(=O)(=O)N2CCCC2)cc1 (stereo unspecified) -10.9%
CC(=O)c1cccc(Nc2nc(-c3ccccc3Cl)nc3ccccc23)c1 -2.16%
Cc1ccccc1Cn1c2ccccc2c2cnn(CC(=O)NCCc3ccc(Cl)cc3)c(=O)c21 -14.7%
Cc1cccc2sc(N(Cc3cccnc3)C(=O)COc3ccccc3)nc12 -6.89%
CCOc1ccccc1NC(=O)c1cc2c(=O)[nH]c3ccccc3c2s1 -11.5%
Cc1cc(C)c2c(-n3cccc3)c(C(=O)NCC(C)c3ccccc3)sc2n1 (stereo unspecified) -10.9%
COc1ccc(CNC(=O)C2CCN(S(=O)(=O)c3ccc4c(ccn4C)c3)CC2)cc1 -21.2%
CCOC(=O)c1c(C)[nH]c(C)c1S(=O)(=O)NCC(=O)N1CCN(c2ccccc2F)CC1 -14.4%
COc1ccc(-c2nc3ccccc3s2)cc1NC(C)=O -28.1%
COc1ccc(C(=O)CCC(=O)Nc2cc(C)ccc2C)cc1 -21.4%
O=C1c2cccc(O)c2C(=O)c2c(O)cccc21 -10.8%
CCc1c(C)c(C#N)c2nc3ccccc3n2c1Nc1cccc(C(F)(F)F)c1 -9.54%
COc1ccc(-c2nc(S(=O)(=O)c3ccc(C)cc3)c(NCc3ccccc3)o2)cc1 -19.8%
Cn1cc(-c2cc3n(n2)CCC(=O)N3CCCC(=O)Nc2ccccc2F)c2ccccc21 -12.3%
Cc1cc(C)c2c(=O)c3c(oc2c1)C(=O)N(Cc1ccco1)C3c1ccccc1F (stereo unspecified) -5.59%
CCc1ccc(NC(=O)c2ccc(F)c(S(=O)(=O)N3CCN(c4cc(C)ccc4C)CC3)c2)cc1 -6.16%
Cc1noc2ncnc(N3CCCC(C(=O)Nc4cccc(C(F)(F)F)c4)C3)c12 (stereo unspecified) -10.8%
CC(C)c1ccc(NC(=O)Cn2c(=O)oc3cc(S(=O)(=O)N4CCCC4)ccc32)cc1 -22.1%
CC(C)c1ccc(NC(=O)C(Cc2ccccc2)NS(=O)(=O)c2ccc3c(c2)oc(=O)n3C)cc1 (stereo unspecified) -18%
Cc1noc(-c2ccc(-c3noc(-c4ccc(C(F)(F)F)cc4)n3)cc2)n1 -13.8%
O=C(NCCCN1CCN(c2ccc(F)cc2)CC1)c1ccc2nc(CCc3ccccc3)oc2c1 -7.58%
COc1ccc(Nc2nc(-c3ccccc3F)nc3ccccc23)cc1OC -47.7%
CCc1cccc(NC(=O)C(CC)n2nc(C)c3sc4ccccc4c3c2=O)c1 (stereo unspecified) -5.81%
COc1ccc(NC(=O)c2sc3nc4c(cc3c2N)CN(Cc2ccccc2)CC4)cc1OC -19.9%
Cc1c(C(=O)NCc2ccccc2Br)oc2ccc3c(c12)C(=O)CC(C)(C)O3 -11.1%
COc1ccc(NC(=O)CCc2nnc3n(CC(C)C)c(=O)c4ccccc4n23)cc1OC -13.2%
CC(C)(C)OC(=O)N1CCC(c2c(C(=O)N3CCN(c4ncccn4)CC3)cnn2-c2cccc(F)c2)CC1 -1.07%
Cc1ccc(C)c(S(=O)(=O)c2nnn3c2nc(N2CCCCC2)c2sccc23)c1 -9.54%
CCOc1ccc(CC(=O)NCc2ccc3c(c2)CCN3C(C)=O)cc1OCC -7.36%
CN(C)CCNC(=O)Cn1nc(N2CCN(c3ccccc3)CC2)ccc1=O 3.86%
COc1ccc(NC(=O)c2ccc3c(c2)CCN3S(=O)(=O)c2ccccc2)cc1 -2.73%
COc1cc2c(cc1OC)n(CC(=O)c1ccc(C)cc1)c(=O)n1nc(CCn3nc(C)cc3C)nc21 -14.2%
Cc1ccc(O)c(NC(=O)COCc2cc(-c3ccco3)on2)c1 -2.67%
CC(=O)Nc1nonc1-c1nnc(SCc2ccccc2Cl)n1C -5.92%
COc1ccc(OC)c(NC(=O)Cn2cc(C(=O)c3ccc(Cl)cc3)c(=O)c3cc(OC)ccc32)c1 -16.1%
CCc1ccc2occ(CC(=O)Nc3ccc(C)c(C)c3)c2c1 17.4%
CCOC(=O)c1ccccc1NC(=O)c1nn(-c2ccc(OC)c(Cl)c2)c(=O)c2c1c1ccccc1n2C -13.7%
Cc1ccc(CNC(=O)CCCc2nnc3n(CC(C)C)c(=O)c4sccc4n23)cc1 -15%
Cc1sc2ncn(CC(=O)N3CCN(c4ccccc4)CC3)c(=O)c2c1S(=O)(=O)N1CCC(C)CC1 -18.2%
COCCCNC(=O)C1CCN(c2nc3ccc(Cl)cc3[nH]2)CC1 -13.2%
CCCCCCCCOc1ccccc1C(=O)Nc1ccc(C(=O)OCC[N+](C)(CC)CC)cc1 -10.3%
CC1=C(c2ccc(C(C)C)cc2)S(=O)(=O)NC1=NCc1ccc(Cl)cc1 -22.9%
Cc1cccc(NC(=O)N2CC=C(c3c[nH]c4ccccc34)CC2)c1C -30.3%
CCN(CC)C(=O)C1CCCN(c2ncnc3c2c(-c2ccccc2)cn3-c2cccc(C)c2)C1 (stereo unspecified) -1.81%
O=C(c1cc2cc3ccc(Cl)cc3nc2o1)N1CCN(c2cccc(Cl)c2)CC1 -4.66%
O=c1c2nncn2ccn1-c1ccc(F)c(F)c1 -5.88%
O=C(CN1C(=O)CSc2ccc(S(=O)(=O)N3CCCC3)cc21)NCc1ccc(F)cc1Cl -16%
COc1ccc(CNC(=O)c2ccc(CS(=O)(=O)c3ccc(Br)cc3)o2)cc1 -9.3%
CCCCOC(=O)c1ccc(Nc2nc3ccc(C(=O)c4ccccc4)cc3n3cnnc23)cc1 -20.7%
CCOc1ccc(OCC)c(NC(=O)c2cc(-c3cccs3)nc3ccccc23)c1 16.8%
COc1ccc(-c2cn3nc(SCC(=O)Nc4cc(C)cc(C)c4)ccc3n2)cc1 -3.98%
CCc1cccc(C)c1NC(=O)Cn1ncc2c3ccccc3n(Cc3ccccc3)c2c1=O -13.2%
CCOc1ccc2c(c1)c(=O)c(S(=O)(=O)c1ccc(CC)cc1)cn2Cc1cccc(Cl)c1 -22.2%
CN1CCN2c3ccccc3Cc3ccccc3C2C1 (stereo unspecified) -11.2%
CCCSc1ncnc2c1c(-c1ccccc1)cn2-c1ccccc1OC -26.2%
COc1ccc(OC)c(NC(=O)CS(=O)(=O)Cc2nc(-c3ccc(C)cc3)oc2C)c1 -24.5%
Cc1ccc(Cl)cc1Nc1nn2c(=O)c3ccc(C(=O)NC4CCCCC4)cc3nc2s1 -15.3%
O=C1CCSc2ccc(S(=O)(=O)Nc3cccc(C(F)(F)F)c3)cc2N1 -34.2%
O=c1c(N2CCN(c3cccc(Cl)c3)CC2)csc2ccc(Cl)cc12 -0.48%
O=c1c2sccc2n(Cc2cc(=O)n3cc(Cl)ccc3n2)c(=O)n1-c1ccccc1 -20.8%
CCOC(=O)c1[nH]c(C)c(CCC(=O)Nc2cc(Cl)c(OC)cc2OC)c1C -33.8%
O=C(NCc1ccccc1Cl)c1ccc2c(c1)N(Cc1ccccc1)CCS2 -21.5%
O=C(NC1CCCCCC1)c1ccc(CS(=O)c2cccc(Cl)c2)o1 (stereo unspecified) 6.38%
O=C(CSc1nc2ccccc2n1Cc1cccc(F)c1)N1CCN(c2ccc(F)cc2)CC1 -8.07%
Cc1cc(C)c(NC(=O)Cn2c(=O)n(CC(=O)NCCc3ccccc3)c(=O)c3ccccc32)c(C)c1 5.27%

Source: PubChem BioAssay AID1159614 (National Center for Advancing Translational Sciences (NCATS), 2016)
